Measured values as given in the supplement of paper PMC12217912.
Some of the results follow. The full chains were built here from the parent and the listed change. Values near 0.05 are background.

B1: TEV protease; numbered along this chain (parent)
chain: MGESLFKGPRDYNPISSSICHLTNESDGHTTSLYGIGFGPFIITNKHLFRRNNGTLVVQSLHGVFKVKDTTTLQQHLVDGRDMIIIRMPKDFPPFPQKLKFREPQREERICLVTTNFQTKSMSSMVSDTSCTFPSGDGIFWKHWIQTKDGQCGSPLVSTRDGFIVGIHSASNFTNTNNYFTSVPKNFMELLTNQEAQQWVSGWRLNADSVLWGGHKVFMVKPEEPFQPVKEATQL

Variants of: B1
Assay: raw area under fraction-flipped curve 0-4 h after induction (AUC4h, not background-subtracted), DNA-recorder readout of cleavage of the substrate (dimensionless); higher = more cleavage of the substrate by the protease variant
Details: temperature: 34 °C; time window: 0-4 h after rhamnose induction
Method: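 In vivo DNA recorder in E. coli TOP10(DE3) ΔrhaA at 34 °C. Each TEVp single-site mutant (parent TEVp 0) is paired with a single-site variant of the 7-mer TEVs (canonical ENLYFQ|S). The substrate sits between flexible linkers in a Bxb1-sfGFP-TEVs-SsrA fusion, so cleavage stabilises Bxb1 and speeds flipping of a recombination array, read by NGS. The value is the raw area under the fraction-flipped curve over 0-4 h after rhamnose induction (AUC4h), with ≥20 reads per time point. It is not background-subtracted; inactive controls average about 0.047.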
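Note: Bxb1 expression induced with 0.2% (w/v) L-rhamnose at OD600 near 0.5, cultures sampled hourly, flipped fraction per protease–substrate barcode pair counted by paired-end Illumina sequencing.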

Row | Variant | area with substrate ENAYFQS | area with substrate ENDYFQS | area with substrate ENEYFQS | area with substrate ENFYFQS | area with substrate ENGYFQS | area with substrate ENIYFQS | area with substrate ENKYFQS | area with substrate ENNYFQS | area with substrate ENPYFQS | area with substrate ENQYFQS | area with substrate ENRYFQS | area with substrate ENSYFQS | area with substrate ENTYFQS | area with substrate ENVYFQS | area with substrate ENWYFQS | area with substrate ENYYFQS | area with substrate ENCYFQS | area with substrate ENHYFQS | area with substrate ENMYFQS
1 | D27Y | 0.0614 | 0.0604 | 0.0568 | 0.062 | 0.0499 | 0.0999 | 0.0598 | 0.0602 | 0.0619 | 0.0563 | 0.0533 | 0.0542 | 0.0587 | 0.0779 | 0.0413 | 0.048 |  |  | 
2 | D27R | 0.0423 | 0.0629 |  |  |  |  | 0.0583 | 0.0678 |  | 0.0484 | 0.0747 | 0.0543 | 0.0667 |  | 0.0785 | 0.0443 | 0.0674 |  | 
3 | L33E | 0.077 | 0.0473 | 0.056 | 0.0579 | 0.0589 | 0.0665 | 0.0557 | 0.0583 | 0.0456 | 0.0624 |  | 0.0672 | 0.0501 |  | 0.0204 |  | 0.0504 | 0.0742 | 
4 | L33C | 0.0585 | 0.065 | 0.0604 |  | 0.0729 | 0.124 | 0.0699 | 0.0549 | 0.0755 | 0.0532 | 0.0498 | 0.0474 | 0.0541 | 0.0744 | 0.0626 | 0.0466 | 0.0579 | 0.0541 | 
5 | S4F | 0.0663 | 0.0542 |  | 0.0738 | 0.062 | 0.166 |  | 0.0621 | 0.0554 | 0.0504 | 0.0524 | 0.0755 | 0.0639 | 0.0965 |  |  | 0.0954 | 0.0567 | 
6 | R50V | 0.0417 | 0.0602 | 0.0625 |  | 0.0685 | 0.122 | 0.0696 | 0.0474 | 0.0426 | 0.0541 | 0.0622 | 0.0618 | 0.0758 | 0.131 |  | 0.0554 | 0.0752 | 0.064 | 0.0963
7 | R50Q | 0.0971 |  |  | 0.0791 | 0.0578 | 0.11 | 0.0678 | 0.0671 |  | 0.067 | 0.058 |  |  |  |  | 0.0704 | 0.0946 |  | 
8 | R50F | 0.0869 | 0.0432 | 0.0545 |  | 0.071 |  | 0.0483 | 0.0673 | 0.0498 | 0.0293 | 0.0579 | 0.0559 | 0.0733 |  |  | 0.0823 |  |  | 
9 | G28V | 0.0649 | 0.0548 | 0.056 | 0.0615 | 0.0699 |  | 0.0548 | 0.0672 | 0.0541 | 0.0493 | 0.0564 | 0.0505 | 0.0568 | 0.066 |  | 0.0626 |  |  | 0.0562
10 | Y12F | 0.0605 | 0.0636 | 0.054 |  | 0.0611 | 0.111 | 0.061 | 0.0611 | 0.0656 | 0.0553 | 0.0666 | 0.0622 | 0.0569 | 0.0804 |  |  | 0.066 |  | 0.0939
11 | T44V | 0.0469 | 0.0414 | 0.0532 | 0.0612 |  | 0.0819 | 0.0541 |  |  | 0.0565 | 0.0577 | 0.057 | 0.053 | 0.0515 | 0.0525 | 0.0591 | 0.0574 | 0.0544 | 0.0492
12 | I15V | 0.0653 | 0.0609 | 0.0566 | 0.0638 | 0.0512 |  | 0.0595 | 0.0596 | 0.0575 | 0.0588 |  | 0.0471 | 0.0692 | 0.0736 |  |  | 0.0638 | 0.0464 | 0.0738
